# Measured values published in PubChem BioAssay AID504706 (National Center for Advancing Translational Sciences (NCATS), 2011).
# Screen size: about 320,000 compounds; about 200 (0.062%) were called active. The shares of active, inactive and inconclusive entries below differ from those in the screen. Calls follow the shape of the dose curve; as a rule, active = well fitted activation curve with a large enough effect; inconclusive = small, poorly fitted or top-dose-only effect; inactive = no such curve, though single readings can be large or run the other way. No potency is given beside an inconclusive call; the fits are too rough.
# Test: qHTS assay for re-activators of p53 using a Luc reporter; also: nearly all actives have a fitted effect of over 45% in size
# Details: H1299 p53-A138V BP100-luciferase reporter, luminescence, 24 h; series mostly up to 92.2 µM
# Outline: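 H1299 (p53-null), stable ts p53-A138V + BP100-Luc; 1000 cells/well, Opti-MEM/10% FBS; cpd 4 pt, 1:5; 24 h, 37 deg C, 5% CO2; detection reagent 10 min RT; luminescence.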
# Potency is read from the fitted curve at half-maximal effect; tags tell the direction and shape of the fitted curve.
row,SMILES,Potency
1,CCc1ccc(/C=C/C(=O)c2ccc(N3CCOCC3)cc2)cc1,"inconclusive [activator, partial curve, poor fit]"
2,COc1ccc(Br)cc1/C=N/Nc1cccc(C(=O)O)c1,"inconclusive [activator, partial curve, poor fit]"
3,O=C(Nc1nc(-c2cccc(Br)c2)cs1)Oc1ccccc1,"inconclusive [activator, full curve, poor fit]"
4,Cc1cc(NC(=O)CSc2nnc3c(C)cc4c(C)ccc(C)c4n23)no1,inactive
5,CCc1nnc(NS(=O)(=O)c2ccc(NC(=O)c3ccc(Br)cc3)cc2)s1,inactive
6,c1ccc(CNc2ncnc3c2cnn3Cc2ccccc2)cc1,inactive
7,Cc1cnc(NC(=O)CCCc2nc3ccccc3s2)s1,"inconclusive [activator, single point]"
8,CN1/C(=C\C(=O)c2cccs2)Sc2ccccc21,"inconclusive [activator, full curve, poor fit]"
9,CN(CC(=O)Nc1c(Cl)cccc1Cl)C(=O)Cc1ccc2c(c1)CCC2,inactive
10,CC(C)c1cc(C(=O)NCc2cccnc2)no1,"inconclusive [activator, single point]"
11,Cc1ccc2nc(-c3ccc(SCC(=O)Nc4cc(C)on4)nc3)[nH]c2c1,"inconclusive [activator, full curve, poor fit]"
12,O=C(Nc1ccccc1)C1=C[C@@H](C2CC2)C[C@@H](OCc2ccc(CO)cc2)O1,inactive
13,Cc1ccccc1C(=O)O/N=C(\N)Cc1cccs1,"inconclusive [activator, full curve, poor fit]"
14,COc1ccccc1N=c1oc2cc(O)ccc2cc1C(N)=O,"inconclusive [activator, partial curve, poor fit]"
15,Cc1sc(NC(=O)COc2ccccc2)c(C#N)c1-c1ccccc1,"inconclusive [activator, single point]"
16,Cc1ccc(CSC2=Nc3ccccc3C3=NC(=O)CN23)cc1,inactive
17,COc1ccc(NC(=O)c2cc(C)on2)cc1,"inconclusive [activator, full curve, poor fit]"
18,O=C1C2C3C=CC(C3)C2C(=O)N1c1cccc(-c2nc3ccccc3o2)c1 (centres undefined),inactive
19,COc1ccc(Nc2ncccc2C(=O)O)cc1,"inconclusive [activator, partial curve, poor fit]"
20,COc1ccc(CNc2ccc(C)cc2)cc1Br,"inconclusive [activator, partial curve]"
21,COc1ccccc1Nc1nc(Cl)c(C=O)s1,"inconclusive [activator, partial curve, poor fit]"
22,c1ccc2nc(-c3nccs3)ccc2c1,"inconclusive [activator, full curve, poor fit]"
23,CN(C)c1ccc(Nc2ccc([N+](=O)[O-])cn2)cc1,inactive

row,SMILES,Potency
1,O=C(Cn1cc(SCc2ccc(Cl)cc2)c2ccccc21)N1CCOCC1,"inconclusive [activator, full curve, poor fit]"
2,O=C(Nc1ccccc1C(=O)NC(Cc1ccccc1)C(=O)O)c1ccco1 (centres undefined),inactive
3,CC(=O)Oc1ccc2c(=O)c(-c3nc4ccccc4s3)coc2c1,"inconclusive [activator, partial curve, poor fit]"
4,O=C(Nc1ccc2ccccc2n1)c1ccccc1Br,"inconclusive [activator, partial curve, poor fit]"
5,O=C(Nc1ccc(Cl)cc1)ON=C1CCCC1,"inconclusive [activator, partial curve, poor fit]"
6,Cc1ccc(C(=O)OCC(=O)c2c[nH]c3ccccc23)cc1,"inconclusive [activator, partial curve, poor fit]"
7,Oc1[nH]c2ccccc2c1N=Nc1ccccc1F,"inconclusive [activator, partial curve, poor fit]"
8,O=C(NCCCN1CCCC1)Nc1cccc2ccccc12,inactive
9,CC(C)(C)NC(=O)C1Cc2ccccc2CN1S(=O)(=O)c1ccc(F)cc1 (centres undefined),inactive
10,CN(C)c1cccc(C(=O)N/N=C/c2ccsc2)c1,"inconclusive [activator, partial curve, poor fit]"
11,CCOc1ccc(CN2CCN(Cc3ccc(C)o3)CC2CCO)cc1 (centres undefined),"inconclusive [activator, full curve, poor fit]"
12,COc1ccccc1NC(=O)c1cc(=O)[nH]c2ccccc12,"inconclusive [activator, single point]"
13,O=C(CN1CCCCCC1)Nc1ccc(Br)cc1Br,"inconclusive [activator, single point]"
14,Fc1ccc(-c2nc3n(n2)Cc2ccccc2-3)cc1,"inconclusive [activator, partial curve, poor fit]"
15,Cc1ccc(NC(=O)/C(C#N)=C(\N)C(Cl)(Cl)Cl)nc1,"inconclusive [activator, partial curve, poor fit]"
16,CCOC(=O)CSC1=NC(=O)/C(=C/c2ccc(OC)cc2)S1,"inconclusive [activator, full curve, poor fit]"
17,Nc1ccc2nc(-c3ccc(N)c(Cl)c3)[nH]c2c1,"inconclusive [activator, full curve, poor fit]"
18,Cc1ccc(/C=N/Nc2ccccn2)s1,"inconclusive [activator, partial curve, poor fit]"
19,O=C(CC(c1ccccc1)C1CCCCC1=O)c1ccco1 (centres undefined),"inconclusive [activator, partial curve, poor fit]"
20,COc1ccc(CCNC(=O)c2ccccc2NS(=O)(=O)c2c(F)cccc2F)cc1,inactive
21,Cc1ccc(NCCC(=O)c2cccc([N+](=O)[O-])c2)c(C)c1,"inconclusive [activator, single point]"
22,COc1ccc(/C=C(\NC(=O)c2ccc([N+](=O)[O-])cc2)C(=O)NCCCN2CCOCC2)cc1,inactive
23,Cc1occc1C(=O)N=Nc1c(O)[nH]c2ccc(Br)cc12,"inconclusive [activator, partial curve, poor fit]"

row,SMILES,Potency
1,CCC(=O)C1CCCN(C(=O)CCc2nnc(C3(c4ccc(Cl)cc4)CCC3)o2)C1 (centres undefined),"inconclusive [activator, partial curve, poor fit]"
2,CC1CCN(C(=O)CSCC(=O)Nc2nc(-c3cccs3)cs2)CC1,"inconclusive [activator, single point]"
3,Cc1cccc(C(=O)n2c(=S)nc3cc(C)ccn32)c1,"inconclusive [activator, full curve, poor fit]"
4,CCS(=O)(=O)N1CCc2nc(-c3ccccc3)sc2C1,"inconclusive [activator, full curve, poor fit]"
5,COc1cc(C2Nc3cc(Cl)c(S(N)(=O)=O)cc3S(=O)(=O)N2)ccc1OCc1ccccc1 (centres undefined),"inconclusive [activator, partial curve, poor fit]"
6,COc1ccccc1-n1c(-c2cc(-c3ccc(F)cc3)n[nH]2)n[nH]c1=S,inactive
7,Cc1ccc(S(=O)(=O)CCC(=O)Nc2ccc(S(=O)(=O)N(C)C)cc2)cc1,"inconclusive [activator, single point]"
8,CN1CCN(CCCNC(=O)c2ccc(/C=C3\Sc4ccccc4N(Cc4ccccc4F)C3=O)cc2)CC1,"inconclusive [activator, partial curve, poor fit]"
9,CCCn1c(=O)c(Cc2ccccc2)c(O)c2ccccc21,inactive
10,CSc1cnc2c(=O)n(C)c(=O)[nH]c2n1,inactive
11,Cc1nc2cc(NC(=O)CS(=O)(=O)c3ccc(F)cc3)ccc2s1,inactive
12,COc1ccc(-c2nnc(SCC(=O)N3CCOCC3)o2)cc1,"inconclusive [activator, partial curve, poor fit]"
13,COc1ccc(-c2coc3cc(O)cc(O)c3c2=O)cc1,"inconclusive [activator, partial curve, poor fit]"
14,S=C(Nc1ccccc1)Nc1nc2ccccc2n1CCOc1ccc(Br)cc1,active: 22.4 µM
15,CNC(=S)N/N=C/c1c(C)c(C(=O)c2ccc(F)cc2)n2ccccc12,inactive
16,CCC(C)NC(=O)c1cc(CC(C)C)on1 (centres undefined),"inconclusive [activator, full curve, poor fit]"
17,O=c1c(C=NCCCn2ccnc2)c(-c2ccccc2)[nH]n1-c1nc2ccccc2s1,"inconclusive [activator, full curve, poor fit]"
18,Nc1ccc(C(=O)OCC(=O)N2c3ccccc3Sc3ccccc32)cc1[N+](=O)[O-],inactive
19,Nc1ccc2sc(N)nc2c1,"inconclusive [activator, full curve, poor fit]"
20,COc1ccc(NC(=O)c2c(C)nn(-c3ccccc3)c2Cl)cc1,"inconclusive [activator, single point]"
21,CCOc1ccccc1C(=O)Nc1cccc2cccnc12,"inconclusive [activator, partial curve, poor fit]"
22,CC(CCc1ccccc1)NC(=O)c1ccccc1F (centres undefined),"inconclusive [activator, single point]"
23,Cc1nc2ccc(NC(=O)[C@@H](NC(=O)c3c(F)cccc3F)C(C)C)cc2s1,"inconclusive [activator, single point]"
